# Reference: the supplement of paper PMC8728848
# The list shows a part of the results.
# B1: LecB PA7 (Pseudomonas aeruginosa) (protein)
# chain: MATQGVFTLPANTRFGVTAFANSSATQTVKVLVNNETAATFTGQSTNNAVIGSQVLNSGGGGKVQIQVSVNGRSSDLVSAQVILANELNVALVGSEDSTDNDYNDAVVVINWPLG
# How the values were obtained:
# Assay in all cases: glycan array binding signal (z-score within array); higher = stronger binding
# Settings in all cases: glycan notation: IUPAC condensed, linker removed
# [1] = biological target: Fuc(a1-2)[GalNAc(a1-3)]Gal(b1-3)GlcNAc(b1-6)GalNAc
# Outline: (§1)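 Negative Z-scores can be read as non-binding. The Z-score is calculated within each array and then averaged across arrays of one protein sequence at different concentrations or buffers and across linkers. Arrays, 3228 in all, were curated from the Consortium for Functional Glycomics database and kept only where the protein sequence was available.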
# [2] = biological target: Fuc(a1-2)[GalNAc(a1-3)]Gal(b1-4)Glc
# Outline: as §1
# [3] = biological target: Fuc(a1-2)[GalNAc(a1-3)]Gal(b1-4)GlcNAc
# Outline: as §1
# [4] = biological target: Fuc(a1-2)[GalNAc(a1-3)]Gal(b1-4)GlcNAc(b1-2)Man
# Outline: as §1
# [5] = biological target: Fuc(a1-2)[GalNAc(a1-3)]Gal(b1-4)GlcNAc(b1-2)Man(a1-3)[Fuc(a1-2)[GalNAc(a1-3)]Gal(b1-4)GlcNAc(b1-2)Man(a1-6)]Man(b1-4)GlcNAc(b1-4)GlcNAc
# Outline: as §1
# [6] = biological target: Fuc(a1-2)[GalNAc(a1-3)]Gal(b1-4)GlcNAc(b1-2)Man(a1-3)[Fuc(a1-2)[GalNAc(a1-3)]Gal(b1-4)GlcNAc(b1-2)Man(a1-6)]Man(b1-4)GlcNAc(b1-4)[Fuc(a1-6)]GlcNAc
# Outline: as §1
# [7] = biological target: Fuc(a1-2)[GalNAc(a1-3)]Gal(b1-4)GlcNAc(b1-3)Gal(b1-4)GlcNAc
# Outline: as §1
# [8] = biological target: Fuc(a1-2)[GalNAc(a1-3)]Gal(b1-4)GlcNAc(b1-3)Gal(b1-4)GlcNAc(b1-3)Gal(b1-4)GlcNAc
# Outline: as §1
# [9] = biological target: Fuc(a1-2)[GalNAc(a1-3)]Gal(b1-4)GlcNAc(b1-3)GalNAc
# Outline: as §1
# [10] = biological target: Fuc(a1-2)[GalNAc(a1-3)]Gal(b1-4)GlcNAc(b1-3)[Fuc(a1-2)[GalNAc(a1-3)]Gal(b1-4)GlcNAc(b1-6)]GalNAc
# Outline: as §1
# [11] = biological target: Fuc(a1-2)[GalNAc(a1-3)]Gal(b1-4)GlcNAc(b1-6)GalNAc
# Outline: as §1
# [12] = biological target: Fuc(a1-2)[GalNAc(a1-3)]Gal(b1-4)[Fuc(a1-3)]GlcNAc
# Outline: as §1
# [13] = biological target: Fuc(a1-2)[GalNAc(a1-3)]Gal(b1-4)[Fuc(a1-3)]GlcNAc(b1-3)GalNAc
# Outline: as §1
# [14] = biological target: Fuc(a1-2)[GalNAc(a1-4)]Gal(b1-4)GlcNAc
# Outline: as §1
# [15] = biological target: Fuc(a1-2)[GalNAc(b1-3)]Gal
# Outline: as §1
# Fuc(a1-3)GlcNAc = biological target: Fuc(a1-3)GlcNAc
# Outline: as §1
# [16] = biological target: Fuc(a1-3)[Gal(b1-4)]Glc6S
# Outline: as §1
# [17] = biological target: Fuc(a1-3)[Gal(b1-4)]GlcNAc
# Outline: as §1
# [18] = biological target: Fuc(a1-3)[Gal(b1-4)]GlcNAc(b1-2)Man
# Outline: as §1
# [19] = biological target: Fuc(a1-3)[Gal(b1-4)]GlcNAc(b1-2)Man(a1-3)[Fuc(a1-3)[Gal(b1-4)]GlcNAc(b1-2)Man(a1-6)]Man(b1-4)GlcNAc(b1-4)GlcNAc
# Outline: as §1
# [20] = biological target: Fuc(a1-3)[Gal(b1-4)]GlcNAc(b1-2)Man(a1-3)[Fuc(a1-3)[Gal(b1-4)]GlcNAc(b1-2)Man(a1-6)]Man(b1-4)GlcNAc(b1-4)[Fuc(a1-6)]GlcNAc
# Outline: as §1
# [21] = biological target: Fuc(a1-3)[Gal(b1-4)]GlcNAc(b1-3)Gal(b1-3)[Fuc(a1-4)]GlcNAc
# Outline: as §1
# [22] = biological target: Fuc(a1-3)[Gal(b1-4)]GlcNAc(b1-3)Gal(b1-4)[Fuc(a1-3)]GlcNAc
# Outline: as §1
# [23] = biological target: Fuc(a1-3)[Gal(b1-4)]GlcNAc(b1-3)Gal(b1-4)[Fuc(a1-3)]GlcNAc(b1-3)Gal(b1-4)[Fuc(a1-3)]GlcNAc
# Outline: as §1
# [24] = biological target: Fuc(a1-3)[Gal(b1-4)]GlcNAc(b1-3)GalNAc
# Outline: as §1
# [25] = biological target: Fuc(a1-3)[Gal(b1-4)]GlcNAc(b1-6)GalNAc
# Outline: as §1
# [26] = biological target: Fuc(a1-3)[Gal(b1-4)]GlcNAc(b1-6)[Gal(b1-3)GlcNAc(b1-3)]Gal(b1-4)Glc
# Outline: as §1
# [27] = biological target: Fuc(a1-3)[Gal(b1-4)]GlcNAc6S
# Outline: as §1
# [28] = biological target: Fuc(a1-3)[Gal3S(b1-4)]Glc
# Outline: as §1
# [29] = biological target: Fuc(a1-3)[Gal3S(b1-4)]GlcNAc
# Outline: as §1
# [30] = biological target: Fuc(a1-3)[Gal3S(b1-4)]GlcNAc6S
# Outline: as §1
# [31] = biological target: Fuc(a1-3)[GalNAc(b1-4)]GlcNAc
# Outline: as §1
# [32] = biological target: Fuc(a1-3)[GalNAc(b1-4)]GlcNAc6S
# Outline: as §1
# Fuc(a1-4)GlcNAc = biological target: Fuc(a1-4)GlcNAc
# Outline: as §1
# Fuc(b1-3)GlcNAc = biological target: Fuc(b1-3)GlcNAc
# Outline: as §1
# Gal(a1-2)Gal = biological target: Gal(a1-2)Gal
# Outline: as §1
# Gal(a1-3)Gal = biological target: Gal(a1-3)Gal
# Outline: as §1
binder,measurement,setting,value
B1,glycan array binding signal (z-score),[1],-0.506
same,glycan array binding signal (z-score),[2],-0.412
same,glycan array binding signal (z-score),[3],-0.431
same,glycan array binding signal (z-score),[4],-0.475
same,glycan array binding signal (z-score),[5],-0.312
same,glycan array binding signal (z-score),[6],0.04
same,glycan array binding signal (z-score),[7],-0.218
same,glycan array binding signal (z-score),[8],-0.381
same,glycan array binding signal (z-score),[9],-0.487
same,glycan array binding signal (z-score),[10],-0.073
same,glycan array binding signal (z-score),[11],-0.472
same,glycan array binding signal (z-score),[12],0.409
same,glycan array binding signal (z-score),[13],-0.44
same,glycan array binding signal (z-score),[14],1.57
same,glycan array binding signal (z-score),[15],-0.347
same,glycan array binding signal (z-score),Fuc(a1-3)GlcNAc,2.73
same,glycan array binding signal (z-score),[16],-0.113
same,glycan array binding signal (z-score),[17],0.928
same,glycan array binding signal (z-score),[18],-0.179
same,glycan array binding signal (z-score),[19],1.6
same,glycan array binding signal (z-score),[20],-0.113
same,glycan array binding signal (z-score),[21],0.446
same,glycan array binding signal (z-score),[22],2.19
same,glycan array binding signal (z-score),[23],3.54
same,glycan array binding signal (z-score),[24],0.383
same,glycan array binding signal (z-score),[25],-0.367
same,glycan array binding signal (z-score),[26],0.225
same,glycan array binding signal (z-score),[27],-0.27
same,glycan array binding signal (z-score),[28],0.709
same,glycan array binding signal (z-score),[29],0.667
same,glycan array binding signal (z-score),[30],0.336
same,glycan array binding signal (z-score),[31],1.34
same,glycan array binding signal (z-score),[32],0.753
same,glycan array binding signal (z-score),Fuc(a1-4)GlcNAc,2.33
same,glycan array binding signal (z-score),Fuc(b1-3)GlcNAc,0.341
same,glycan array binding signal (z-score),Gal(a1-2)Gal,-0.497
same,glycan array binding signal (z-score),Gal(a1-3)Gal,-0.489
